Source: PubChem BioAssay AID624418 (National Center for Advancing Translational Sciences (NCATS), 2012)
The whole screen tested about 410,000 compounds, of which about 530 (0.13%) were called active. Inconclusive means that the source gave no clear call. Such entries were picked first, then a sample of the others. Calls follow the shape of the dose curve; as a rule, active = well fitted inhibition curve with a large enough effect; inconclusive = small, poorly fitted or top-dose-only effect, or another doubt; inactive = no such curve, though single readings can be large or run the other way. Where the call is inconclusive, the potency comes from a doubtful curve fit.

test: qHTS of GLP-1 Receptor Inverse Agonists: Cytotox Screen; conditions: HEK293 cAMP-luciferase reporter cells, luminescence, 24 h; series mostly up to 38.3 µM
Method in brief: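 Seeding density was 200 cells/uL; after overnight-length (12 h) culture, 23 nL compounds went on for 24 h at 37 °C. Readout used a luciferase detection reagent, luminescence taken after 12 min at room temperature.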
Potency is read from the fitted curve at half-maximal effect.

SMILES | Potency
O=C(O)c1ccc2c3c(ncnc13)-c1ccccc1C2=O | inactive
CC(=O)Nc1cccc(NC(=O)C(=O)Nc2ccc3c(c2)N(C(=O)C2CC2)CCC3)c1 | inconclusive: 14.1 µM [inhibitor, single point]
O=C(CCCn1c(=O)c2sccc2n(CC(=O)NCc2ccco2)c1=O)NCc1ccco1 | inactive
CCN(CC)CCNC(=O)CCc1c(C)nc2c(c(C)nn2-c2ccc(C)c(C)c2)c1C | inconclusive: 31.6 µM [inhibitor, partial curve, poor fit]
Cc1cccc(NC(=S)NC(NC(=O)c2ccco2)C(Cl)(Cl)Cl)c1 (stereo unspecified) | inconclusive: 11.2 µM [inhibitor, partial curve, poor fit]
Cc1ccccc1-c1noc(-c2nnn(-c3ccccc3C)c2N)n1 | inactive
CCC1CN2CCc3cc(OC)c(OC)cc3C2CC1CC1c2cc(OC)c(OC)cc2CCN1C(=O)C(Cc1c[nH]c2ccccc12)NC(=O)OC(C)(C)C (stereo unspecified) | inconclusive: 14.1 µM [inhibitor, single point]
Cc1ccc(Nc2cc(C)nn2-c2nc(C)cc(=O)[nH]2)cc1 | inconclusive: 1.58 µM [inhibitor, full curve, poor fit]
O=Cc1cc2ccccc2nc1SCc1ccc(Cl)c(Cl)c1 | inconclusive: 2.24 µM [inhibitor, partial curve, poor fit]
Cc1nonc1OC(C)CNCCNc1ccc([N+](=O)[O-])cc1 (stereo unspecified) | inconclusive: 11.2 µM [inhibitor, single point]
O=C(Nc1ccc2c(c1)OCO2)N1CCN(Cc2ccco2)CC1 | inconclusive: 10 µM [inhibitor, single point]
CCN(CC)C(=O)[C@H]1C[C@H](CC(=O)NC/C=C(\C)CCC=C(C)C)C(=O)N2CCc3c([nH]c4cc(-c5ccco5)ccc34)[C@]12C | inconclusive: 28.2 µM [inhibitor, single point]
Cc1ccc(/C=N/Nc2ccnc3cc(Cl)ccc23)c(C)c1 | inconclusive: 14.1 µM [inhibitor, single point]
COc1cc(NC(=O)C2CCCCC2)c(OC)cc1NC(=O)CN1CCCCC1 | inconclusive: 11.2 µM [inhibitor, single point]
Cn1cc(Br)c(C(=O)N2CCc3ccccc32)n1 | inactive
COc1ccccc1N1CCN(c2nc(C)nc3c2oc2ccccc23)CC1 | inconclusive: 22.4 µM [inhibitor, partial curve, poor fit]
O=C(CCN1CCc2ccccc2C1)c1ccc2c(c1)OCCO2 | inconclusive: 15.8 µM [inhibitor, single point]
Cc1cccc([C@@H](NC(=O)OC(C)(C)C)C(=O)OC(C)(C)C)c1 | inactive
CC(/C=C/c1ccccc1)=N\NC(N)=S | inconclusive: 2.24 µM [inhibitor, full curve, poor fit]
COc1ccc(NC(=O)Nc2ccc3c(c2)C(=O)N([C@H](C)CO)C[C@H](C)[C@@H](CN(C)C(=O)NC(C)C)O3)cc1 | inconclusive: 0.501 µM [inhibitor, full curve, poor fit]
O=C(CSc1nnc(-c2ccco2)o1)c1ccccc1Cl | inconclusive: 28.2 µM [inhibitor, single point]
COc1ccccc1NC(=O)c1ccc2nsnc2c1 | inconclusive: 10 µM [inhibitor, partial curve]

SMILES | Potency
COC(=O)c1ccc(/C=C2/SC(=S)N(CCCC(=O)Nc3ccc(O)cc3)C2=O)cc1 | inconclusive: 14.1 µM [inhibitor, single point]
Cn1c(=O)oc2cc(S(=O)(=O)NC(Cc3ccccc3)C(=O)NCc3ccccc3Cl)ccc21 (stereo unspecified) | inactive
Cc1c(C(=O)Oc2cccc3cccnc23)oc2ccccc12 | inconclusive: 3.55 µM [inhibitor, full curve, poor fit]
O=C(Nc1cccc(Cl)c1)c1cc(N=Nc2ccc([N+](=O)[O-])cc2Cl)ccc1O | inactive
COc1cc(/C=N/NC(=S)N/N=C/c2cc(OC)c(OC)c(OC)c2)cc(OC)c1OC | inconclusive: 10 µM [inhibitor, partial curve, poor fit]
COc1cc(/C=C2/SC(=S)N(c3c(C)n(C)n(-c4ccccc4)c3=O)C2=O)ccc1O | inconclusive: 10 µM [inhibitor, partial curve, poor fit]
CC(=O)c1ccc(NC2=C(N3CCOCC3)C(=O)c3ccccc3C2=O)cc1 | inconclusive: 12.6 µM [inhibitor, partial curve, poor fit]
CCCCN(C)C(=O)c1ccc(Nc2nc(C(N)Cc3ccc(C(F)(F)F)cc3)cs2)nc1 (stereo unspecified) | inconclusive: 28.2 µM [inhibitor, single point]
Cc1cc(-n2c(C)cc(C(=O)CSc3ccccn3)c2C)no1 | inactive
COc1ccc(CCCc2nnc(SCC(=O)Nc3ccc(C)cc3)o2)cc1C | inactive
O=S(=O)(c1ccccc1)C1CON(Cc2ccccc2)C1c1ccccc1 (stereo unspecified) | inactive
O=C(/C=C/c1ccc([N+](=O)[O-])o1)NNC(=O)c1ccc(F)cc1 | inconclusive: 6.31 µM [inhibitor, partial curve, poor fit]
COCc1ccc(CN2CCC(N3CCC(C(=O)N4CCCC4)CC3)CC2)o1 | inactive
CC(C)Oc1ccc(Nc2ncnc3ccccc23)cc1 | inactive
Cc1cc(O)c(/C=N/Nc2ccc(Cl)cc2)c(=O)o1 | inactive
CN1C2CCC1/C(=C/c1cccn1C)C(=O)/C2=C\c1cccn1C | inconclusive: 28.2 µM [inhibitor, single point]
Cc1ccc([N+](=O)[O-])cc1N=Nc1c(-c2ccc([N+](=O)[O-])cc2)[nH]n(C(N)=S)c1=O | inconclusive: 2.24 µM [inhibitor, full curve, poor fit]
Cc1cc(C)cc(C(=O)NC(=S)Nc2ccc(Cc3ccncc3)cc2)c1 | inconclusive: 20 µM [inhibitor, single point]
COc1ccc(C(=O)NCCn2cc(SCc3ccc(C(F)(F)F)cc3)c3ccccc32)cc1OC | inactive
Cc1cc(C)n2nc(SCc3nnc(SCc4ccccc4C)s3)nc2n1 | inconclusive: 28.2 µM [inhibitor, single point]
Cc1cccc(NC(=O)CSC2=Nc3ccccc3C3=NC(CC(=O)NCc4cccs4)C(=O)N23)c1 (stereo unspecified) | inactive
COc1ccccc1C1CC(c2ccccc2)=NN1C(=O)c1ccccc1 (stereo unspecified) | inconclusive: 8.91 µM [inhibitor, partial curve]

SMILES | Potency
CCOC(=O)c1cc2n(c1/N=C/N(C)C)-c1ccccc1C2=O | inactive
CCCCNc1c(-c2ccc(OC)c(SC(C)CC)c2)nc2cc(C)ccn12 (stereo unspecified) | inconclusive: 15.8 µM [inhibitor, single point]
COc1ccc(N=Nc2nc3ccc(Br)cc3n2C)cc1 | inconclusive: 10 µM [inhibitor, single point]
Nc1nonc1-n1nnc(C(=O)N/N=C/C=C/c2ccccc2)c1CSC1=NCCS1 | inconclusive: 8.91 µM [inhibitor, partial curve]
C[C@@H]1CN([C@@H](C)CO)C(=O)c2cccc(NC(=O)Nc3ccc(F)cc3)c2O[C@@H]1CN(C)Cc1ccc(Oc2ccccc2)cc1 | inconclusive: 12.6 µM [inhibitor, partial curve, poor fit]
Cc1ccc(-c2cc(C(F)F)n3ncc(C(=O)NCc4ccco4)c3n2)cc1 | inactive
Nc1nc(Cl)c(C=O)c(N2CCCCC2)n1 | inactive
Nc1nc(-c2ccccc2)c(N=Nc2ccccc2Cl)s1 | inconclusive: 7.94 µM [inhibitor, partial curve, poor fit]
N#Cc1nc(-c2cccc3ccccc23)oc1NCCN1CCCCC1 | inconclusive: 4.47 µM [inhibitor, partial curve, poor fit]
N#C/C(=N\Nc1ccc([N+](=O)[O-])cc1)C(=N)N1CCOCC1 | inconclusive: 11.2 µM [inhibitor, partial curve]
O=C(NNc1c2ccccc2nc2ccccc12)c1ccccc1O | inconclusive: 10 µM [inhibitor, partial curve]
CC(OC(=O)c1ccc(O)cc1)C(=O)Nc1cc(C(F)(F)F)ccc1Cl (stereo unspecified) | inconclusive: 6.31 µM [inhibitor, partial curve, poor fit]
CC(Sc1ccc2c(c1)OCCO2)C(=O)Nc1ccc2c(c1)OCO2 (stereo unspecified) | inactive
COc1ccccc1NC(=O)Nc1nc(CC(=O)N2CCN(c3ccccc3OC)CC2)cs1 | inconclusive: 11.2 µM [inhibitor, single point]
NC(Cc1ccccc1)c1csc(Nc2nccc(C(F)(F)F)n2)n1 (stereo unspecified) | inconclusive: 11.2 µM [inhibitor, partial curve]
O=c1[nH]c2ccc(Cl)cc2c(-c2ccccc2)c1SC(=S)N1CCOCC1 | inconclusive: 14.1 µM [inhibitor, single point]
CC(=O)c1cc(CC=C(C)C)c(O)c(CC=C(C)C)c1O | inactive
Fc1ccccc1CSCc1nc2ccccc2[nH]1 | inactive
COc1ccnc(CSC(N)=Nc2ccc(F)cc2)c1 | inconclusive: 14.1 µM [inhibitor, single point]
Cc1cc(/C=C(/C#N)c2nc3ccccc3[nH]2)c(C)n1-c1cccc([N+](=O)[O-])c1 | inconclusive: 14.1 µM [inhibitor, single point]
COc1ccc(Cl)cc1NC(=O)CSc1nccn1-c1ccc(Cl)cc1 | inactive
NC(=O)C1(Nc2ccc([N+](=O)[O-])cc2)CCCC1 | inconclusive: 7.94 µM [inhibitor, partial curve, poor fit]
